Experimental data as given in the supplement of paper PMC3334620.
Whole data set: some 33,000 sequences, median “E-score (-0.5 to 0.5)” near -0.032, cut for the highest 2% near 0.36. The list shows a part of the results.

Biological target: T1, Sko1 (UniProt Q02100)
T1 sequence: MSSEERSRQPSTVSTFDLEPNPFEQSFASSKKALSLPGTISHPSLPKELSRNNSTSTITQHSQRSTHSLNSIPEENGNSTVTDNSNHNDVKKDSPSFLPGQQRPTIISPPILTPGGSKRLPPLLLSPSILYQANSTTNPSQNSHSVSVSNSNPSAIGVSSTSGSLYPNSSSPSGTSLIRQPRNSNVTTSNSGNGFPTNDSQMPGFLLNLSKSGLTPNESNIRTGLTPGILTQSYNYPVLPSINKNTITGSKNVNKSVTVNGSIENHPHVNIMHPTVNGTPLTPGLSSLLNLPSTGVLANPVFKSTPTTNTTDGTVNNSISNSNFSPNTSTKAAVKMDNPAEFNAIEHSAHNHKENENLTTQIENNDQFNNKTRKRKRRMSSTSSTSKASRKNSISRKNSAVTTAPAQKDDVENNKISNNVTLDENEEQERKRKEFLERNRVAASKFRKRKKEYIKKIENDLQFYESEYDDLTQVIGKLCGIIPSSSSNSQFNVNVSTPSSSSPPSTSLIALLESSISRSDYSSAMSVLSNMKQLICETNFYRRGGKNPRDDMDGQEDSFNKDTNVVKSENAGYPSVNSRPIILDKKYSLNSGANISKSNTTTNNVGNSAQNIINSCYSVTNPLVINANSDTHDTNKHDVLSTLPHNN
Test: PBM E-score (8-mer binding enrichment) (E-score (-0.5 to 0.5)); higher = stronger / more preferred TF binding; most listed sequences are background and not binding sites
Details: protein concentration: 200 nM; construct: GST-full length
Experimental: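 Universal 'all 10-mer' protein binding microarrays (Agilent AMADID 015681) probed with GST-tagged S. cerevisiae TFs (full-length or DBD) made by in vitro transcription/translation (PURExpress), about 100-200 nM. Bound TF was detected with fluorescent anti-GST. Each ungapped 8-mer (which stands for itself and its reverse complement) is scored by the PBM enrichment score (E-score), a modified Wilcoxon-Mann-Whitney statistic from -0.5 to +0.5, computed with the Universal PBM Analysis Suite. Scale: above 0.35 generally sequence-specific binding.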

| Sequence | PBM E-score |
| --- | --- |
| AATCACGA | 0.0581 |
| CTCGTATC | 0.0593 |
| AGGTACAT | 0.153 |
| CCCTAGGA | -0.276 |
| CCTTCGCC | -0.326 |
| ATGCTCAC | 0.0757 |
| ATTCGCGG | 0.1 |
| ACATCTCC | -0.119 |
| AAGTCTAA | -0.0065 |
| TAGGTAAA | 0.169 |
| CGGGTCGC | -0.0711 |
| TGTAGAAA | 0.172 |
| TCTCATAA | 0.0934 |
| CAATTTAG | 0.146 |
| AGCTTCCC | -0.292 |
| AACCACTT | -0.0113 |
| TGCTACAA | 0.131 |
| AACCTGGA | -0.0976 |
| CCCCTCAG | -0.356 |
| CATACAAC | 0.059 |
| CCGGATTC | -0.0976 |
| CTCCTACA | -0.0534 |
| CTTAATGC | 0.0192 |
| AAACGGTG | -0.1 |
| AAACAATT | 0.0401 |

| Sequence | PBM E-score |
| --- | --- |
| TACGCCCA | 0.0657 |
| CGGTATAG | -0.236 |
| CATCCTTC | 0.0809 |
| AGGGGAGC | -0.294 |
| CACCGGAG | -0.353 |
| ACAAACCC | -0.0873 |
| AACAATAT | 0.32 |
| GGACGGCC | -0.331 |
| CTAATTAA | 0.202 |
| CAGCTCGA | -0.226 |
| AGTCGCCG | -0.197 |
| AAGTTGTC | 0.0291 |
| GAAATCAC | 0.282 |
| AAAATTCT | 0.0451 |
| CGGGGATC | -0.387 |
| CTGTTCCC | -0.269 |
| AGTACACG | 0.188 |
| GACGCGTA | 0.388 |
| AGAAACGG | -0.00978 |
| GCTGATTA | 0.159 |
| CATACTAC | 0.052 |
| GGTAACAA | 0.247 |
| TACCTGCA | -0.122 |
| ACCCCGCT | -0.233 |
| CACTCGGA | 0.0666 |

| Sequence | PBM E-score |
| --- | --- |
| GAGAAAGC | -0.048 |
| CCAGTTGA | -0.0364 |
| GATAGATC | 0.0469 |
| ACTCCTGA | -0.0495 |
| AACCACGT | 0.371 |
| AATCATAA | 0.213 |
| ATGTGGTC | -0.0418 |
| TAAGTGCA | 0.104 |
| AGACACTA | -0.127 |
| GATAGGGA | -0.127 |
| ACCCAAAT | 0.0772 |
| CCGCTACC | -0.239 |
| ATTCCAAG | 0.0791 |
| GGATGCTA | -0.0518 |
| ATGTCCCA | -0.233 |
| GGAGCGAC | -0.083 |
| CGTTGGGC | 0.0143 |
| GAACTCTA | -0.0173 |
| AGGCTGAT | -0.142 |
| GCTCCCCC | -0.322 |
| CCAAAAAA | 0.167 |
| ACCACATA | 0.183 |
| CATACGTA | 0.485 |
| GTGATCTA | 0.127 |
| ACGCATCG | 0.152 |

| Sequence | PBM E-score |
| --- | --- |
| GAACGTAC | 0.254 |
| ATAACTCA | 0.0469 |
| CTCTTTAA | 0.0552 |
| TCAATTAA | 0.192 |
| ACTCTTGA | -0.0757 |
| GGGCATAA | -0.0902 |
| AGGGTAAG | -0.0789 |
| TAAACGCA | 0.304 |
| AGATGAAT | -0.0403 |
| CCGGACTA | -0.0654 |
| TCCCACGA | -0.0092 |
| GCTAGGTA | -0.148 |
| AGGCTTAC | -0.0829 |
| AAAAACGT | 0.337 |
| CGGCATAC | -0.00615 |
| AAGTTGTG | 0.0912 |
| CACACGAC | 0.254 |
| ATTACACG | 0.221 |
| AACAAATA | 0.173 |
| GAACTTCA | -0.0971 |
| GGTGTCAA | -0.0467 |
| AGTGCCGA | -0.148 |
| GAGATAGC | -0.015 |
| CCCGCTAG | -0.175 |
| CAGAGTTC | -0.104 |

| Sequence | PBM E-score |
| --- | --- |
| GCTAAAAC | -0.0111 |
| CGCCTCAC | -0.0959 |
| AGGACGGG | -0.367 |
| TAGCGTAA | 0.341 |
| CTAGCCTA | -0.22 |
| CGCCCTTC | -0.17 |
| CCTGACGA | 0.24 |
| GGTACAAC | -0.0836 |
| CTCTGCGC | -0.124 |
| AGTATTGC | 0.0312 |
| CCAGGCAC | -0.156 |
| CCCTCTCG | -0.408 |
| GAATTTCA | 0.0843 |
| CTCATTGC | 0.0918 |
| ATTAGATA | 0.236 |
| AGCCTCCA | -0.207 |
| CAACCAAC | -0.0623 |
| TTCGGAAA | -0.102 |
| GGGTCAAC | -0.136 |
| TGAGGGCA | -0.146 |
| GGGTTCGA | -0.277 |
| ACATCTAC | 0.161 |
| TCCTACCA | -0.286 |
| ATTCCTTG | -0.124 |
| GCAGTTAA | 0.0467 |

| Sequence | PBM E-score |
| --- | --- |
| GAAGGAAA | -0.121 |
| AATATCCC | -0.0915 |
| ATTAGGGC | -0.205 |
| ATTGAACC | -0.0368 |
| CAAATGCG | 0.0688 |
| AACGTCAG | 0.429 |
| CATCGTTC | 0.021 |
| AGCCGCAC | -0.204 |
| AACGCTGT | 0.0693 |
| GATCCAGC | -0.217 |
| ATTCTGGC | -0.0861 |
| AAAGAAAC | 0.166 |
| AAAAATCC | -0.162 |
| ATGAGCAC | -0.00798 |
| ACGTGAAG | 0.326 |
| CAGCGAGA | -0.214 |
| CCACGTAC | 0.374 |
| AGCTATAA | 0.0209 |
| CGGGGAAG | -0.139 |
| ATCGTTCA | 0.0814 |
| AGATATAA | 0.149 |
| CTTTTTCA | -0.103 |
| CCAAGACC | -0.323 |
| CTAAAGAC | 0.00796 |
| CCCTAAGA | -0.197 |

| Sequence | PBM E-score |
| --- | --- |
| ACTGATTG | -0.022 |
| AGGGAACG | -0.157 |
| AACCTATT | -0.0142 |
| ACCTGGCG | -0.109 |
| TCAGTGAA | -0.0739 |
| ATCCACCC | -0.197 |
| CCATGATC | -0.0725 |
| CAACTGCC | -0.0672 |
| GGCCTAAC | -0.115 |
| GCTAGGGA | -0.366 |
| CGTTTGGA | 0.0125 |
| CTTTGGCC | -0.0406 |
| TAACCGGA | -0.106 |
| CACTACAC | 0.115 |
| AAGCTGCG | -0.0505 |
| CGGGCATA | -0.167 |
| AATGAGAC | -0.106 |
| TCAACCAA | 0.092 |
| GTGGTTCA | 0.136 |
| ACCTTGAT | -0.12 |
| TGATGTAA | 0.434 |
| GAGTAAAC | 0.00425 |
| GTTAGAAC | 0.182 |
| AGCTCGGG | -0.202 |
| GCGATGTA | 0.135 |

| Sequence | PBM E-score |
| --- | --- |
| AATCAGTA | 0.0871 |
| AGTACCAG | -0.0512 |
| GGACGTGA | 0.181 |
| ACCTCTGC | -0.296 |
| AGTCTGTG | -0.131 |
| AATGCTTC | -0.0667 |
| CAAACCTA | 0.0861 |
| AGCATTCC | -0.095 |
| CTTTTTTA | 0.0539 |
| CAACATAG | -0.0302 |
| TTACCGAA | 0.0923 |
| ACCTACTA | 0.109 |
| ACTGTGAG | -0.108 |
| GCTTACCA | -0.0214 |
| CTATCACA | 0.0977 |
| TGATATCA | 0.307 |
| ATTATGCG | 0.231 |
| ATAGGATC | -0.145 |
| GCGAACAA | 0.0976 |
| CCAGGGGG | -0.21 |
| CCGGGGTA | -0.305 |
| AATGTGGG | -0.0795 |
| ACTGGCCC | -0.236 |
| ACCGCCCA | -0.312 |
| AAGAGACA | 0.0233 |

| Sequence | PBM E-score |
| --- | --- |
| AACAGGGC | -0.204 |
| GCGTCTCA | 0.0184 |
| AACCAAAG | 0.00562 |
| CCACGGCC | -0.166 |
| CTCAAATC | -0.0426 |
| AATCCGCG | -0.0276 |
| CGATCGAA | -0.131 |
| ATGGCGCA | 0.21 |
| ACTATTTA | 0.0998 |
| AGCCGGGG | -0.274 |
| CCTACCCG | -0.0568 |
| CCAGTACC | -0.185 |
| GAGTAGTA | -0.054 |
| CACATAGC | -0.0437 |
| AGCTATGC | 0.0129 |
| CAATGGCA | -0.0732 |
| CTACTTAC | 0.132 |
| CATCTGAC | -0.0444 |
| AACTATCC | -0.237 |
